Measured values as given in PubChem BioAssay AID686979 (National Center for Advancing Translational Sciences (NCATS), 2013).
In all, about 420,000 compounds went through this assay and about 50,000 (12%) were called active. The inconclusive results got no clear call from the source; some entries with a clear call stand among them for comparison. The call rests on the fitted dose curve; in most records, active means well fitted inhibition curve with a large enough effect; inconclusive means small, poorly fitted or top-dose-only effect; inactive means flat fitted curve, though single readings scatter. Potencies of inconclusive entries are left out as doubtful fits.

Test: qHTS for Inhibitors of human tyrosyl-DNA phosphodiesterase 1 (TDP1): qHTS in cells in presence of CPT; further: nearly all actives have a fitted effect of over 55% in size
Details: chicken DT40 Tdp1-/-;hTDP1 cells + 20 nM CPT, ATP luminescence, 48 h; activity change, negative = growth inhibition: at 46.2 µM (top of the series)
How it was run: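 Cell growth measured by CellTiter-Glo luminescence after a minimum 48 h, 37 C compound exposure with 20 nM CPT in Tdp1-knockout DT40 cells stably expressing hTDP1, seeded 400/well; qHTS titration format.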
On the % scale 0 is the no-effect control and ±100 the full control effect; potency means the concentration at half of the fitted maximal effect; tags describe the fitted curve by direction and shape.

Compound | Potency | activity change, negative = growth inhibition
CC(=O)Nc1cccc(-c2cc(NC=O)c3ncc(-c4cccc(C(C)=O)c4)n3c2)c1 | inconclusive [inhibitor, single point] | 
COC(=O)c1sccc1NC(=S)Nc1cc(C)ccc1OC | inactive | 
CCNC(=S)Nc1ccc(OCC)cc1 | inactive | 
COc1ccc(-c2cc3ccc(O)c(CN4CCCCC4C)c3oc2=O)cc1OC (stereo not drawn) | inconclusive [inhibitor, single point] | 
CC(C)C[C@H]1CNC(=S)N1C[C@H]1CCCN1C[C@H](CC(C)C)N1C[C@H](Cc2ccc(O)cc2)N(CCc2ccccc2)C1=S | inconclusive [inhibitor, single point] | 
CCOC1=C2[C@H]([C@H]3C(=O)N(c4ccccc4)C(=O)[C@H]3C1)[C@@H](C(C)C)N(S(=O)(=O)c1ccc(C)cc1)[C@H]2c1ccccc1 | inconclusive [inhibitor, partial curve] | 
O=C(CSc1nncs1)NCCCc1ccccc1 | inactive | 
Cc1ccc(N=Cc2c(O)n(-c3nccs3)c(=O)c3ccccc23)c(C)c1 | inconclusive [inhibitor, single point] | 
Cc1ccc(NC(=S)Nc2ccc(Br)cc2)cc1 | inactive | 
CC(C)(C)C1CCc2onc(C(=O)NC3CCCC3)c2C1 (stereo not drawn) | inconclusive [inhibitor, single point] | 
Cc1cccc(C)c1-n1c(=O)n(Cc2ccccc2)c(=O)c2[nH]cnc21 | inactive | 
COCc1oc2ccc(NS(=O)(=O)c3ccc(C)cc3)cc2c1C(=O)OC | active: 3.66 µM | 
COc1cc(NC(=O)C23CC4CC(C2)CC(n2cnc([N+](=O)[O-])n2)(C4)C3)cc(OC)c1 | inconclusive [inhibitor, single point] | 
CC(C)NC(=O)C1(C)CCN1C(=O)c1c(F)cccc1F (stereo not drawn) | inactive | 
O=C(CCNS(=O)(=O)c1ccc2c(c1)CCN2C(=O)C1CC1)N1CCN(c2cccc(C(F)(F)F)c2)CC1 | active: 2.06 µM | 
O=C(CCNS(=O)(=O)c1ccccc1F)N1CCN(C(c2ccccc2)c2ccccc2)CC1 | inconclusive [inhibitor, single point] | 
Cc1cc(Nc2ccc(O)cc2)ccc1N | active: 5.01 µM | 
CSc1nc2c(c(=O)[nH]c(=O)n2C)n1CCCc1ccccc1 | inconclusive [inhibitor, partial curve] | 
N#Cc1cccc(NC(=O)c2cc(C3CCCCN3C(=O)CCCc3ccccc3)on2)c1 (stereo not drawn) | active: 23.1 µM | 
O=C(c1cc2sccc2n1Cc1ccc(F)cc1)N1CCc2ccccc21 | inconclusive [inhibitor, single point] | 
CCc1nc2c(OCc3ccc(C(=O)OC)cc3)cccn2c1N(C)C(=O)CC(C)C | inconclusive [inhibitor, single point] | 
Cc1cccc(NC(=O)CN2CCC(C(=O)c3ccc4c(c3)OCCO4)CC2)c1 | inconclusive [inhibitor, single point] | 

Compound | Potency | activity change, negative = growth inhibition
O=C(N/N=C/c1c(F)c(F)c(F)c(F)c1F)c1cccc(S(=O)(=O)N2CCOCC2)c1 | inconclusive [inhibitor, single point] | 
COc1ccc(NC(C)=O)cc1NC(=O)CSc1nnc(-c2ccc(F)cc2)n1N | inconclusive [inhibitor, full curve] | 
Cn1c(=O)n(C)c2cc(N3CCOCC3)c(NS(=O)(=O)c3ccc(Cl)cc3)cc21 | inconclusive [inhibitor, single point] | 
O=C1c2sccc2-c2cccc3cccc1c23 | inconclusive [inhibitor, single point] | 
Cc1nn(C2CCS(=O)(=O)C2)c(Cl)c1/C=C/C(=O)OCC(=O)c1cc(C)n(-c2ccc(F)cc2)c1C (stereo not drawn) | active: 20.6 µM | 
COc1ccccc1N1CCN(C(=O)CN(CCc2ccccc2)S(C)(=O)=O)CC1 | inconclusive [inhibitor, partial curve] | 
COc1ccc(OC)c(N(CCN2C(=O)c3ccccc3C2=O)C(=O)CCl)c1 | inconclusive [inhibitor, single point] | 
COc1cc2cc(C(=O)N/N=C/c3ccccc3Cl)[nH]c2cc1OC | inconclusive [inhibitor, single point] | 
CC1=CC(=C(C#N)c2nc3ccccc3s2)C=C(C)N1c1ccc(F)cc1 | inconclusive [inhibitor, single point] | 
CCC(C)NC(=O)Nc1ccc(Br)cc1 (stereo not drawn) |  | inconclusive: -30.6% [inhibitor]
CC(C)C(=O)N1CCC1(C)C(=O)Nc1cccc(Oc2ccccc2)c1 (stereo not drawn) | inconclusive [inhibitor, partial curve, poor fit] | 
O=C(Nc1ccc(Br)cn1)c1cccc(-c2cc3ccccc3oc2=O)c1 | inconclusive [inhibitor, single point] | 
CCOC(=O)C1CCN(C(=O)CSc2n[nH]c(-c3ccc(OC)cc3)n2)CC1 |  | inconclusive: -31.5% [inhibitor]
COC(=O)Nc1ccc(S(=O)(=O)N2CCCC(C(=O)N3CCCCCC3)C2)cc1 (stereo not drawn) | inconclusive [inhibitor, single point] | 
COc1ccc(CCNC(=O)Cn2c(-c3ccc(F)cc3)cc(C(C)=O)c2C)cc1OC | active: 25.9 µM | 
CCOCCn1c(=O)c2c(nc3n2CCCN3Cc2ccccc2)n(C)c1=O | inactive | 
Cc1cc(=O)n(Cc2c(F)cccc2Cl)c2c1c(C)nn2C | inconclusive [inhibitor, single point] | 
CC(SC(=S)N1CCOCC1)C(=O)O (stereo not drawn) | inactive | 
O=C(CC[C@H]1O[C@@H](n2ccc(=O)[nH]c2=O)[C@H](O)[C@@H]1O)N[C@H](Cc1ccccc1)C(=O)NCCCN1CCCC1=O | inactive | 
CCCN(CCC)CC(=O)NCC1(c2ccccc2)CCOCC1 | inconclusive [inhibitor, single point] | 
CCCCOc1cccc(-c2cc(C(=O)NNC(=S)NCC)c3ccccc3n2)c1 | inconclusive [inhibitor, single point] | 
